This passage reports TGI and GI50 results from PubChem BioAssay (NCI).

“And” between values parts separate entries of the source, which are not always exact repeats. Identical values can stand only once.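 Results reflect a 48-hour exposure of cells in 96-well plates to compound at five concentrations. Abbreviation: GI50, concentration required for 50% inhibition of growth. At the TGI there is no net growth.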 Square brackets hold non-standard residues; d marks the D form. Peptide text beside a SMILES is read from it. * marks the point of attachment. Cbz = O=C(OCc1ccccc1)*; Boc = CC(C)(C)OC(=O)*; Aib = CC(C)(N)C(=O)O; OBn = c1ccc(CO*)cc1; OtBu = CC(C)(C)O*; βAla = NCCC(=O)O

The test relates to NCI-H322M lung. Briefly: growth of human tumour cells (NCI), 48 h.
The molecule `O=[As](O)(O)c1cc(N=Nc2ccc(-c3ccc(N=Nc4cc([As](=O)(O)O)c(O)cc4O)cc3)cc2)c(O)cc1O` gave a TGI of over 100 µM.

On to `COc1cc(OC)c(/C=C/c2ccc3ccccc3[n+]2C)c(OC)c1`, for which the GI50 was 2.4 µM and the TGI was 13 µM.

In turn, `COc1cc2ccnc3c2c(c1O)N(C)C=C3` registered a TGI of 33.2 µM.

Molecule `O=C(C(O)c1cn(Cc2ccccc2)c2ccccc12)N1CCCCC1` (centres undefined) came in with a TGI of over 100 µM.

With `O=C1C(Br)=C[C@H]2C3C=CC(Br)(C3=O)[C@@H]12` (some centres undefined), the TGI was 31 µM.

Regarding `COc1ccc2c(c1)C(=O)CC(N)C2` (centres undefined), the TGI was over 100 µM.

Consider `COc1ccc(-c2c(C3=NCCN3)nnn2-c2ccccc2)cc1`, for which the TGI was over 100 µM.

With `COc1cc2c(cc1C)NC(=O)/C2=C\c1cc(OC)c(OC)c(OC)c1`, the GI50 was over 100 µM and the TGI is over 100 µM.

Turning to `Cc1ccc(S(=O)(=O)N2CCN(CCN(C)CCN3CCN(S(=O)(=O)c4ccc(C)cc4)CC3)CC2)cc1`, the TGI is 46.8 µM.

`CC(C)=CC(C(O)c1ccccc1)S(=O)(=O)c1nccn1C` (centres undefined) displayed a TGI of over 100 µM.

As for `O=c1[nH]nc(Cc2ccc(Cl)cc2)n1O`, the TGI is over 100 µM.

On to `CC1=CSC2=NC(c3ccc(Cl)c(Cl)c3)=CC(c3ccc(Cl)cc3)N12` (centres undefined), for which the GI50 is over 100 µM and the TGI is over 100 µM.

`O=C1OS2(OCc3cccc4cccc2c34)c2ccccc21` (centres undefined) returned a TGI of over 100 µM.

Take `O=c1ccn(C2OC(CO)C(O)C2O)c(=O)[nH]1` (centres undefined): the GI50 was over 1000 µM and the TGI was over 1000 µM.

For `CC(=O)Oc1cc(C)ccc1[C@]1(C)CC[C@H](C)/C1=C\Br`, the GI50 is 7.49 µM and the TGI came to 20.7 µM.

Molecule `CCOC(=O)c1sc2c(c1OC(=O)c1ccccc1)c(=O)n(-c1ccccc1)c(=S)n2-c1ccccc1` showed a TGI of over 100 µM.

As for `COc1cc(C2c3cc4c(cc3[C@@H](Nc3ccc(C(=O)O)cc3)C3COC(=O)[C@H]23)OCO4)cc(OC)c1O` (some centres undefined), the GI50 was 36.4 µM and > 17.5 µM; the TGI is over 100 µM.

The molecule `C=CCc1cc2cccc(OC)c2oc1=O` returned a TGI of over 100 µM.

For `CC(=O)N/C(=C\c1ccc(/C=C(\NC(C)=O)c2nc3ccc(Cl)cc3[nH]2)cc1)c1nc2ccccc2[nH]1`, the TGI is over 100 µM.

Turning to `c1ccc2c(c1)[I+]c1ccccc1-2`, the GI50 is over 50 µM and the TGI is over 50 µM.

In the case of `CC1=CC[C@@H]2CC[C@]3(C)[C@H](CC[C@@H]4[C@@]5(C)CCCNC(C)(C)[C@@H]5CC[C@]43C)[C@H]2[C@@H]1C`, the GI50 was 1.68 µM and the TGI amounted to 3.07 µM.

Regarding `CC(C)(C)OC(=O)CC(NC(=O)OC(C)(C)C)C(=O)NC(CCCCNC(=O)OCc1ccccc1)C(=O)NC(C)(C)C(=O)NCCC(=O)OCc1ccccc1` (centres undefined) (Boc-D(OtBu)K(Cbz)[Aib][βAla]-OBn; configuration not given here), the TGI is over 100 µM.

Turning to `Nc1c(C(=O)c2ccccc2)sc2nc(-c3cccs3)ccc12`, the GI50 is 0.865 µM and the TGI worked out at 21.9 µM.

`COc1cccc(-c2nc3sccn3c2-c2ccnc(NCCNC(=O)Nc3cccc(C(F)(F)F)c3)n2)c1`: the GI50 is 7.23 µM and the TGI is over 100 µM.

Molecule `COc1ccc(NC(=O)C2C(=O)N(c3ccc(OC)cc3)C(=O)/C2=N/O)cc1` (centres undefined) returned a TGI of 62.7 µM.

Regarding `O=C(O)c1ccc(Nc2nc3cc(C(F)(F)F)ccc3nc2C(=O)O)cc1`, the TGI is over 100 µM.

`COC(=O)C(COC(=O)/C=C/c1ccc(OC(C)=O)c(OC(C)=O)c1)OC(=O)/C=C/c1ccc(OC(C)=O)c(OC(C)=O)c1` (centres undefined) displayed a TGI of 30.6 µM.

`CN1CCN(Cc2ccc(NC(=O)c3cncc(C#Cc4cnc(N)c5ccc(F)cc45)c3)cc2C(F)(F)F)CC1`: the GI50 was 1.4 µM and the TGI is 5.33 µM.

Molecule `CCN(CC)CCCCC1CCN(CC(=O)N2CC(C)C(=O)Nc3ccccc32)CC1` (centres undefined) returned a TGI of over 100 µM.

With `Cc1cc(S(=O)(=O)Nc2nc(N)nc(N3N=CCC3C)n2)c(S)cc1Cl` (centres undefined), the TGI is over 10 µM.

In turn, `CC(C)n1c(=O)n(-c2ccccc2)n(C(C)(C)C)c1=O` had a TGI of over 100 µM.

As for `CC(=O)NC1=N/C(=C/c2cc([N+](=O)[O-])ccc2O)CN1C`, the TGI is over 100 µM.

For `Cc1cc2nc3c(C(OC4OC(CO)C(O)C(O)C4O)C(O)CO)nn(-c4ccccc4)c3nc2cc1C` (centres undefined), the TGI was over 100 µM.

Turning to `Nc1nc2c(ncn2C2C=CC(CO)O2)c(=O)[nH]1` (centres undefined), the TGI is over 100 µM.

As for `Cc1ccc2c(c1)OC1Nc3ccccc3C1=C2O` (centres undefined), the TGI was over 100 µM.

Regarding `CCCCCCNC(=O)C1=C(C)NC(C)=C(C(=O)NCCCCCC)C1`, the TGI was over 100 µM.

In the case of `COc1cc([C@H](C)c2ccc3ccccc3c2)cc(OC)c1OC`, the GI50 was 0.762 µM and the TGI is over 100 µM.

In turn, `O=C(c1ccco1)N(C(=S)OCc1ccccn1)c1ccccc1` came in with a TGI of over 100 µM.

As for `COc1cc(OC2OC(C)C(O)C(O)C2O)cc2oc(-c3ccc(O)cc3)c(CC=C(C)C)c(=O)c12` (centres undefined), the GI50 was 16.6 µM and the TGI was found to be 47.6 µM.

With `COc1cc(-c2cc(=O)c3cc4c(cc3[nH]2)OCO4)cc(OC)c1OC`, the TGI was over 100 µM.

`COC(=O)[C@@H]1N2C(=S)N(c3ccccc3)C(=O)[C@H]2SC1(C)C` gave a TGI of over 100 µM.

In the case of `O=C(Nc1cccc(-c2cn3ccccc3n2)c1)c1ccncc1`, the TGI is over 100 µM.

As to `COc1cc(-c2nc3ccc(C)cc3[nH]2)ccc1OCC(=O)N=Nc1c(O)[nH]c2ccccc12`, the GI50 is 1.67 µM and the TGI was found to be 3.31 µM.

With `COc1ccc2c(c1)CCc1c-2n(CCN(C)C)c2ccc(OC)cc12`, the TGI amounted to 40.1 µM.

With `CCOC(=O)C(O)(NC(C)=O)C(F)(F)F` (centres undefined), the TGI was over 100 µM.

Molecule `C=CCNC(=S)N1CC(C)C(=O)Nc2ccccc21` (centres undefined) registered a TGI of over 100 µM.

In the case of `C=CCn1c(C)nc2cc(Nc3nc(Nc4ccc5nc(C)n(CC=C)c5c4)c4ccccc4n3)ccc21`, the GI50 was 0.727 µM and the TGI came out at 2.04 µM.

In turn, `CC1=C2C(O)C(C(C)CO)C(O)CC2(C)C(O)CC1` (centres undefined) came in with a TGI of over 100 µM.

On to `CN(C(=O)c1ccc(Cl)s1)C(=S)N(C)C(=O)c1ccc(Cl)s1`, for which the TGI was over 10 µM.

Consider `CCOC(=O)C(C(=O)Cc1ccccc1)c1ccccc1` (centres undefined), for which the TGI is over 100 µM.

For `COC(=O)CCC/C=C\C[C@H]1C=CC(=O)/C1=C/C[C@@H](O)CCc1cccc(C(F)(F)F)c1`, the GI50 was 5.17 µM and the TGI was found to be 17.9 µM.

As for `O=C(NNC(=S)Nc1ccccc1)c1csc(NC(=S)NC2CCCCC2)n1`, the TGI was over 100 µM.

For `COc1cc2c(cc1OCc1ccccc1)N=C[C@@H]1C/C(=C/C(=O)NCCCN3C(=O)c4cccc5cccc(c45)C3=O)CN1C2=O`, the GI50 was 2.04 µM and the TGI was 8.2 µM.

For the molecule `Cc1ccc(C(=O)c2oc3ccc4c(C)cc(=O)oc4c3c2C)cc1`, the GI50 is 45.9 µM and the TGI is over 100 µM.

As to `C=CC(=O)N1CCCC(n2nc(-c3ccc(Oc4ccccc4)cc3)c3c(N)ncnc32)C1` (centres undefined), the GI50 is 0.11 µM and the TGI turned out to be 12 µM.

For the molecule `CCCCNc1nc(NC(C)(C)C)nc(NC(C)(C)C)n1`, the GI50 is 62.7 µM and the TGI is over 100 µM.

On to `Clc1nc(Oc2ccccc2)nc(-c2cn(-c3ccccc3)c3ccccc23)n1`, for which the GI50 is 18.8 µM and the TGI came to 48.1 µM.

`CC(=O)O[C@H]1C(N(C)C(=O)c2ccccc2)CC[C@]2(C)C3CC[C@@]4(C)C(CC(O)[C@@H]4C(C)N(C)C)[C@@H]3CCC12` (some centres undefined) displayed a TGI of over 100 µM.

Turning to `Nc1nc(-c2cccc([N+](=O)[O-])c2)c(Br)c(=O)[nH]1`, the TGI was over 100 µM.

For the molecule `CCN(CC)CCC1CC/C(=C\c2ccc(OC)cc2)C1=O` (centres undefined), the TGI is over 100 µM.

`O=C(NCCO)c1ccc(Cl)cc1` yielded a TGI of over 100 µM.

Regarding `COC(=O)c1c(-c2ccccc2)cc2c3cc(-c4ccccc4)c(C(=O)OC)n3c3ccccc3n12`, the TGI is over 100 µM.

`NC(=O)CC(Nc1ncc2c(n1)-c1ccccc1OC2)C(=O)O` (centres undefined) registered a TGI of over 100 µM.

`O=C(Oc1ccc(O)c2c(=O)n3c(cc12)[nH]c1ccccc13)c1ccccc1`: the GI50 was 22.6 µM and the TGI came to 57.5 µM.

For `CSCCC(NC(=O)OC(C)(C)C)C(=O)NCCNc1ccc(NCCNC(=O)C(CCSC)NC(=O)OC(C)(C)C)c2c1C(=O)c1ccccc1C2=O` (centres undefined), the TGI worked out at 32.5 µM.

`CCOc1ccccc1NC(=O)/C=C1\NC(=O)CS1` showed a TGI of over 100 µM.

Molecule `COc1ccc(OC)c2cc(Cc3ccc(N(C)C)cc3)c(=O)c(Cc3ccc(N(C)C)cc3)cc12` registered a TGI of over 100 µM.

Take `O=C(NCCNCCO)N/N=C/c1ccc(Cl)cc1`: the TGI was over 100 µM.

The molecule `CSc1ncc2c(n1)-c1ccccc1OC2N1CCCC1` (centres undefined) yielded a TGI of over 100 µM.

`CC(=O)NC(CCCCNC(=O)OCc1ccccc1)C(=O)NCc1ccccc1` (centres undefined) had a TGI of over 100 µM.

For `CCOc1ccc(/C=C/C(=O)c2ccccc2)cc1`, the GI50 is 26.7 µM and the TGI is 75.3 µM.

The molecule `Cc1c(CCCl)c(=O)n2c([nH]c3ccccc32)c1C#N` registered a TGI of 3.16 µM.

As for `COC(=O)C(C)Sc1nc2cc(Cl)ccc2s1` (centres undefined), the TGI is over 100 µM.

Take `COc1cc(/C=C2/SC(c3ccccc3)N(c3cccc([N+](=O)[O-])c3)C2=O)cc(OC)c1OC` (centres undefined): the TGI is over 100 µM.

`N#CCCN(CCCN(C(=O)Nc1ccccc1)c1ccccc1)C(=O)Nc1ccccc1` came in with a TGI of over 100 µM.

Molecule `N#CCCc1nc2ccc(Br)cc2c(=O)n1CCO` showed a TGI of over 100 µM.

Turning to `CC(C)(C)N1Cc2ccccc2/C(=C/Sc2ccccc2)C1=O`, the TGI came to 30.7 µM.

With `O=C1C=C(c2c(O)ccc3ccccc23)c2ccccc2C1=O`, the TGI was determined as 30 µM.

In turn, `CC[N+](C)(CC)CCN1C(=O)c2ccccc2S1(=O)=O` returned a TGI of over 100 µM.

`CCOC(=O)CCC(=O)C1c2cccc(O)c2C(=O)c2c(O)cccc21` gave a TGI of 3.63 µM.

In the case of `O=C1NC(N/N=C\c2ccccc2)=N/C1=C/c1ccc(Cl)cc1`, the TGI is over 100 µM.

Turning to `CCCCC#COP(=O)(OCC)OCC`, the TGI was over 100 µM.

In turn, `COP1(=O)CC2C(Cl)(Cl)C2(C)C1` (centres undefined) gave a TGI of over 100 µM.

As to `NC(N)=N/N=C/c1nc2sccn2c1[N+](=O)[O-]`, the TGI was found to be 59.2 µM.

`OC1OC(c2ccco2)C(F)(F)C(F)(F)C1(F)F` (centres undefined) came in with a TGI of over 100 µM.

`COC(=O)C1(C(=O)OC)N=C(C)OC1C(C)C` (centres undefined) showed a TGI of over 100 µM.
